Test results as given in PubChem BioAssay AID1645852 (National Center for Advancing Translational Sciences (NCATS), 2021).
Among all 1,200 compounds or so, about 160 (13%) were called active. The inconclusive results got no clear call from the source; some entries with a clear call stand among them for comparison. Calls follow the shape of the dose curve; as a rule, active = well fitted inhibition curve with a large enough effect; inconclusive = small, poorly fitted or top-dose-only effect; inactive = no such curve, though single readings can be large or run the other way. Potencies beside an inconclusive call are fits to weak or partial responses and may not hold up.

The compounds below were run against Inositol hexakisphosphate kinase 1 (Homo sapiens) (UniProt Q92551) (assay: Confirmatory qHTS assay for small molecule inhibitors of Inositol hexaphosphate kinase 1 (IP6K1)). Details: recombinant IP6K1 kinase, ADP-Glo luminescence, 2 h; series mostly up to 49 µM.
Chain of UniProt Q92551 (Q92551 whole entry, looked up): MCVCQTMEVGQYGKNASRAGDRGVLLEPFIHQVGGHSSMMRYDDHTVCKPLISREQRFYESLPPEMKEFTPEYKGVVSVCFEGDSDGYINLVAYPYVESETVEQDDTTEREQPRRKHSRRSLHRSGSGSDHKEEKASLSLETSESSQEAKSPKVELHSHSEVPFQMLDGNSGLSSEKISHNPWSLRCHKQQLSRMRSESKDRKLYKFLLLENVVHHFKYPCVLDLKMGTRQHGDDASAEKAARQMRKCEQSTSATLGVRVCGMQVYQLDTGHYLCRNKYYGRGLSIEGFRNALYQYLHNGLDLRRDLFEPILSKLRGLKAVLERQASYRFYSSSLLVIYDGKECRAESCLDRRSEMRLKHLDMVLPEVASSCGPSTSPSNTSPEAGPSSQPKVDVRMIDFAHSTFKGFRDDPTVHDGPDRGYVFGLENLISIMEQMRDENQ
Summary of the method: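 Screening used the top two library doses against IP6K1 with ATP and IP6 substrates. ADP formation after a 2 hr room-temperature reaction was read by ADP-Glo Max luminescence.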
Also: nearly all actives have a fitted effect of over 65% in size.
Potency is read from the fitted curve at half-maximal effect; tags tell the direction and shape of the fitted curve.

SMILES | Potency
Cc1cc2c(C(C)C)c(O)c(O)c(C=O)c2c(O)c1-c1c(C)cc2c(C(C)C)c(O)c(O)c(C=O)c2c1O | inconclusive: 16.4 µM [inhibitor, single point]
C[C@@H]1COC(Nc2ccc3ncnc(Nc4ccc(OCc5nccs5)c(Cl)c4)c3c2)=N1 | inconclusive: 5.8 µM [inhibitor, partial curve, poor fit]
Oc1cccc(-c2nc(N3CCOCC3)c3oc4ncccc4c3n2)c1 | inconclusive: 0.282 µM [inhibitor, full curve, poor fit]
Cc1cc(SCc2sc(-c3ccc(C(F)(F)F)cc3)nc2C)ccc1OCC(=O)O | active: 10.3 µM
CCc1cc(N2CCC(Oc3ccccc3OC)(C(=O)O)CC2)nc(C)n1 | inactive
COc1ccc(CNC(=O)c2cc3c(-c4ccccc4F)nn(C)c3s2)cc1 | inconclusive: 3.26 µM [inhibitor, full curve]
Cc1ccc(S(=O)(=O)c2cnc(SCC(=O)Nc3ccc4c(c3)OCCO4)[nH]c2=O)cc1C | inconclusive: 7.31 µM [inhibitor, partial curve, poor fit]
Cc1ccc([N+](=O)[O-])cc1S(=O)(=O)N(C)/N=C/c1cnc2ccc(Br)cn12 | inconclusive: 4.61 µM [inhibitor, full curve, poor fit]
O=C(NCc1cccs1)c1ccc2nnc(Cc3ccco3)n2c1 | inconclusive: 26.6 µM [inhibitor, partial curve]
CC(C)C[C@H](C(=O)O)c1cc(-c2ccc(C(F)(F)F)cc2)cc(-c2ccc(C(F)(F)F)cc2)c1 | inconclusive: 9.2 µM [inhibitor, partial curve]
Cc1ccsc1/C=C/C1=NCCCN1C | inactive
COc1ccc(CCC(=O)NCc2ccc3c(c2)CCN3C(=O)c2ccc(Cl)cc2)cc1 | inactive
COc1ccnc(-c2nnc3ccc(N(C)c4ccccc4)nn23)c1 | inconclusive: 14.9 µM [inhibitor, partial curve]
Cc1cc(O)c2ccccc2c1O | inconclusive: 16.4 µM [inhibitor, partial curve]
COc1ccc(-c2c(-c3cc(C(=O)O)ccn3)ncn2C)cc1 | inconclusive: 29.1 µM [inhibitor, partial curve, poor fit]
O=C1NC(=O)/C(=C/c2ccc3c(c2)OC(F)(F)O3)S1 | inconclusive: 11.6 µM [inhibitor, partial curve]
CCNc1nc2c(s1)C(c1cccc(F)c1)CC(=O)N2 (configuration not stated) | active: 16.4 µM
COc1ccc2oc(=O)cc(CN3CCN(c4ccc(F)cc4)CC3)c2c1 | inactive
Cc1cccc(C(=O)N2CCC(Cc3nc(-c4cnccn4)no3)CC2)c1 | inactive
COc1ccc(C(=O)Nc2ccc(-c3cc4ccccc4oc3=O)c(C)c2)cc1Br | inconclusive: 5.8 µM [inhibitor, partial curve, poor fit]
O=C(O)c1cccc(NC(=O)c2cccc(S(=O)(=O)Nc3cccc(C(=O)O)c3)c2)c1 | inconclusive: 14.6 µM [inhibitor, partial curve]
Cc1nc(-c2ccc(OCC(C)C)c(C#N)c2)sc1C(=O)O | active: 6.51 µM
